Laboratory results reported in the RNAGym collection of RNA variant scans (doi:10.7554/elife.90254).
Read counts are not given, so values of variants with three or more changes are uncertain.

B1: LINE1-mini (parent)
chain: GGCAGAGCUCAACACAGCGUGGCAAAGUGGCUGUGGCUAGACUGCC

Variants of: B1
Test: self-cleavage, relative activity (ratio to wild type); higher = more cleavage; in vitro, sequencing; the parent is a self-cleaving ribozyme

| Variant | self-cleavage |
| --- | --- |
| G5A U28C U34A G36U C46G | 0.08 |
| U9C A14G A39U C42U C45G | 0 |
| G5U A12G C42U | 0.04 |
| C3G A4G A16U G33U A39C C46A | 0.03 |
| G2U A11G G21U | 0 |
| G2A A4C C18A | 0.28 |
| G1A G33A C45G | 0.44 |
| G17U C23G C46A | 0.19 |
| C10U G40C C46A | 0.03 |
| G2C G35U A41G G44C | 0.06 |
| C15A G36A C42A | 0.06 |
| A12U A26U C31U G44U | 0.01 |
| C10G G17C C31A C45U | 0.1 |
| C13G C23A G33C | 0.03 |
| U20C G35C G44U | 0.04 |
| A4G G7A G17U G35U C42A | 0.56 |
| A4U G7U C13A G17A | 0.26 |
| A24G G29U U38G C42U | 0.05 |
| A4G G29U G35U | 0.13 |
| A25C C37G A41G | 0.01 |
| G5A A11C C13G G17A C31G A39C | 0.01 |
| A6C C13U G17U | 0.17 |
| A6G G21A C23G | 0 |
| G7U A11G U32A U34G | 0 |

| Variant | self-cleavage |
| --- | --- |
| G2C C8A G22A C23A C45G | 0.22 |
| C10U G17A C31A G36U | 0.01 |
| G1U A4G A11G U20G C31A | 0.01 |
| C3U C10U C18U | 0.1 |
| A11C U38A C42U | 0 |
| A6G A16G U34G | 0.02 |
| G1U G19A C45A | 0.19 |
| G27A A39G G44A | 0.48 |
| C3U A6C G7U C13A U20G G21U A24U | 0.03 |
| A24G C42U C45G | 0.06 |
| G2A G35A C46A | 0.36 |
| C8A A25G C42A | 0.13 |
| A11C A16C U20C G27A U28G | 0.02 |
| A12U G17C C31A U34C | 0.01 |
| C31A U32C G40C C45A | 0.02 |
| G7A C8A C18U | 1.85 |
| G5A A25C C31G G35U | 0.02 |
| G7A A11C U34G U38A G44A | 0.02 |
| C8U A26C G30U | 0.31 |
| C10A C15G A26U C37G C42A | 0 |
| G5U U20G C37U | 0.02 |
| A6U A14C C15A G33U G40A | 0.09 |
| G1U A4G G7A A24C G35U | 0.05 |
| G5C A16G A26U | 0.02 |

| Variant | self-cleavage |
| --- | --- |
| U9C G22C A24G C45U | 0.02 |
| G5C A16U A24C A25G G33A | 0.03 |
| C3U A24U G29U C42U C46U | 0.04 |
| G5C U9G C18U G27C U28C C37G G44C | 0.02 |
| A12U C13A G21U | 0.04 |
| U20G C37U A39G | 0.02 |
| G22C G29A G40U | 0.03 |
| G5U A11C C13A G30U G40C | 0.02 |
| C42A G44A C46U | 0.01 |
| C13U C18U G40U | 0.1 |
| G27A G30C G35U C45G | 0.18 |
| G33C C37G C45U | 0.02 |
| A4C G7U C8U C10G G22U C23A C42G | 0.01 |
| G7U C15U G19A G29C C46A | 0.15 |
| C3G U28A U34A G36U C45G | 0.21 |
| C18A A24U U28C U38A G40A C46G | 0.01 |
| C3G A14U G19U | 0.66 |
| C8U G21A U34G G36U | 0.05 |
| G7U C8A G21C U32C | 0.13 |
| G7U C8A U9G A16C G22A | 0.05 |
| U9G G17U A24C C31U | 0.02 |
| G29U A41C U43C | 0.03 |
| G5C A6C A24U A25U | 0.09 |
| G2U A12G A16G G17C C45U | 0.07 |

| Variant | self-cleavage |
| --- | --- |
| C10U C13A C18U U32A | 0 |
| U28C G35A U38G | 0.01 |
| C10A C13U G21A | 0.01 |
| C13U C15G A24U U38G | 0.04 |
| A12C C13U G22A U43A | 0.01 |
| G2A A11U C42A | 0.03 |
| G1C C37U A39G G40U | 0.01 |
| C10G C18A U38C | 0.01 |
| A4U C18A U32G G36A U38G | 0.01 |
| A16U G19U C42A | 0.09 |
| A14C G22C G36U U43A | 0.02 |
| A26C G30U C31U G35U G40A | 0 |
| G5A A25C U38G G44U | 0.02 |
| A4G A12G C15A A25U U43A | 0.01 |
| C3A A12G G29A | 0.08 |
| C3U C23G C31A | 0.17 |
| G17C G19U C46A | 0.15 |
| G2C C8A U43A | 0.32 |
| G21A A26G G33A G40A | 0.02 |
| U38C C42G U43G | 0.07 |
| C15U G17C U28C C31U G40C | 0 |
| C13U G27C G44A | 0.1 |
| A4C A14C C15U A26G C42A | 0.02 |
| C13G C15U U38C | 0.55 |

| Variant | self-cleavage |
| --- | --- |
| U9A G21C C42A U43C | 0.02 |
| C23G G27C U34C U38G | 0.03 |
| A6U A25G A26U U43A | 0 |
| G5C G7U A41G C42A | 0.1 |
| A6U C18A G35U | 0.05 |
| G1U G2C C18A G21U G40A | 0.01 |
| A4C C8A G17U G22C A24G C37U C45A | 0.1 |
| C10G C31A U32G G44C | 0.01 |
| G5U G19A U32G C37A A39C A41U C45U | 0.02 |
| G5A A25U C31A | 0.05 |
| A6U C18A G21C G44U | 0.03 |
| C13A G22C C31A | 0.04 |
| U20C G35A C46U | 0.01 |
| C10G G30U G36A G40U | 0.02 |
| A16C G30C C37A C45U | 0.06 |
| G2A C13A A25U G35U | 2.34 |
| C18G G27C C45U | 0.04 |
| G5U G19C U32C | 0.02 |
| G1U G2A C10U G21A A41G | 0.03 |
| A11U C13A G19U C31A | 0.02 |
| C10A C13A C42A | 0.07 |
| C8A G21U U28G G30C A39U G40C | 0.02 |
| C18U G21A G27C G36A | 0.1 |
| A4G A6U A11U G27U U34G C45G | 0.02 |

| Variant | self-cleavage |
| --- | --- |
| C3A C13A G21A G27U G29U | 1.65 |
| G2A U9A G17C C23G G33U | 0.06 |
| A4U C13U U38A | 0.43 |
| A16C G19A A25C U34C | 0.04 |
| G17U C18U A26U G36C | 0.03 |
| A16G U20G C23G | 0.01 |
| G2C A4U A12U | 0.08 |
| G5C C15A C42U U43A | 0.01 |
| G5A A14U G22A C31A | 0.08 |
| G30U U38A C46U | 0.98 |
| G30U A39C C45U | 0.06 |
| A6C C8U C13U | 0.63 |
| C18A U28G G30A | 1.63 |
| G2C A14U A26U C42U U43C | 0 |
| C8G G17U G35A C42A | 0.1 |
| C3U C13A U20C G35U | 0.32 |
| A14U G21C G27C | 0.1 |
| A4C U9A U28A C46G | 0.05 |
| C3A C23U G29U | 0.22 |
| C3U A4C G5U | 0.18 |
| C23A A24U A25U | 1.44 |
| A25U A39G G44C | 0.05 |
| G7A C10G G17U G22A G27A G29C C31U | 0.01 |
| A6C C8U U20A G27U U34G | 0.11 |

| Variant | self-cleavage |
| --- | --- |
| G40U C42A C45A | 0.11 |
| C10G A25C C42U | 0.02 |
| A4G A11C A14G U43A | 0.01 |
| G17A C18A G35C U38G | 0.02 |
| A12C C15A G44U C45A | 0.01 |
| C10A G17A A24C G30U | 0.04 |
| G1C C3U C8G G22U | 0.05 |
| C10U A14G G22C | 0.12 |
| G1U G2C U20C | 0.05 |
| C10U A16C U20C C23A U32C | 0.03 |
| A12U G22U U43A | 0.84 |
| C18U U20G U28G | 0.09 |
| C10A G19U C42U | 0.02 |
| A11G C13A U38C | 0 |
| C13U G17C G19C G29U G35A | 0.16 |
| G1A G2U A14U G29U C42A | 0.01 |
| C8G G33U G36C | 0.16 |
| U9A A16G A24U G27A U32C C37G C42A | 0 |
| G7A A12U G22A G36U C42A U43A | 0.05 |
| C15A C18G C46A | 0.01 |
| A12G A24U G27A G29U G30A G36C | 0.1 |
| A6G C13U G40A | 0.28 |
| A12C G19U G22A A39U | 0.01 |
